We go through 79 molecules from ChEMBL document CHEMBL1201862, “PubChem BioAssay data set” (2004).

The structures appear in SMILES notation. Several values for one entry are separate records, joined by “and”; a condition that tells them apart may be missing. Equal values may be shown once.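 The compound was tested at five concentrations on cells cultured in 96-well plates, with a 48-hour exposure period. GI50 marks 50% less growth.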 Activity calls are given as the source filed them. Cut-off read from the data, not from the text of the source: active = GI50 up to about 1.1 µM and inactive = higher.

The subject of this test is NCI-H322M. Description: NCI-60 cell line screen, 48 h.
Turning to `CN(C)CCNC(=O)c1ccc(NCCCN(C)CCCNc2ccc(C(=O)NCCN(C)C)c3nc4ccc([N+](=O)[O-])cc4c(O)c23)c2c(O)c3cc([N+](=O)[O-])ccc3nc12`, the GI50 is active: < 0.01 µM. Consider `O=C(/C=C/c1ccc(Cl)c(Cl)c1)Oc1ccc(/C=C2\CCCCC2=O)cc1`, for which the GI50 is inactive: > 100 µM. To `Cc1ccc2c(O)cc(-c3csc4ccccc34)nc2n1` belongs active: 0.0376 µM; to `CC1=NOC(=O)/C1=C/c1ccc2c(c1)OCO2`, inactive: > 100 µM. Consider `O=C(O)C(Cc1ccccc1-c1ccccc1)C(=O)O`, for which the GI50 was inactive: > 100 µM. Consider `NC1=C(Br)C(=O)c2ncccc2C1=O`, for which the GI50 was inactive: 1.31 µM. For `O=C(O)c1cccc(C(=O)O)c1[S+]([O-])Cc1ccccc1` (centres undefined), the GI50 was inactive: > 100 µM. As for `O=C(Nc1ccccc1C(=O)Nc1nccs1)c1ccccc1`, the GI50 was inactive: 20.7 µM. With `CC(C)(C)NCCC(O)c1cc(C(F)(F)F)nc2c(C(F)(F)F)cccc12` (centres undefined), the GI50 was inactive: 12.4 µM.

As for `COC(=O)C1C(=O)N(CCc2c[nH]c3ccccc23)C[C@@H]2CCC(=O)C[C@H]12` (some centres undefined), the GI50 was inactive: > 100 µM. For the molecule `CN(C)CCOC1(Cc2ccc(Cl)cc2Cl)CCC(C(C)(C)C)CC1` (centres undefined), the GI50 was inactive: 1.75 µM. Consider `O=c1c2c(c1=O)-c1ccccc1CN2`, for which the GI50 is inactive: > 100 µM. Next, `Cc1ccc(C)c(NC(=O)CC2SC(Nc3ccccc3Cl)=NC2=O)c1` (centres undefined): inactive: > 100 µM. On to `CCOC(=O)C(=CNC(Cc1c[nH]c2ccccc12)C(=O)OC)C(=O)OCC` (centres undefined), for which the GI50 is inactive: > 100 µM. On to `Cc1ccc(S(=O)(=O)NCCSS(=O)(=O)c2ccc(C)cc2)cc1`, for which the GI50 is inactive: 80.4 µM. With `C[C@]12CCC(=O)C=C1CC[C@@H]1C2CC[C@]2(C)Nc3c(cnn3-c3ccccc3)CC12` (some centres undefined), the GI50 was inactive: > 100 µM. Take `CC1(CO)C(O)CCC2(C)C1C(O)CC1CC3CC12CCC3(O)CO` (centres undefined): the GI50 is inactive: > 225 µM. For the molecule `O=C1C(NCCc2cc(Cl)c(O)c(Cl)c2)=CC(=O)c2[nH]cnc21`, the GI50 is inactive: 44.9 µM. With `O=c1oc2ccc([N+](=O)[O-])cc2c(Nc2ccc3c(c2)Sc2ccccc2O3)c1[N+](=O)[O-]`, the GI50 is inactive: 21.1 µM. With `C=C1C(=O)O[C@H]2C1[C@H](OC(=O)/C(C)=C\COC(C)=O)C[C@]1(CO1)[C@@H]1[C@H](O)[C@H]3O[C@@]3(C)[C@@H]12` (some centres undefined), the GI50 was inactive: > 100 µM. On to `Cc1c(/C=N/NC(=O)c2cc(Br)cc(Br)c2O)c(=O)n(-c2ccccc2)n1C`, for which the GI50 was inactive: 62.2 µM.

As to `O=C(CSc1nnc(SCC(=O)NN=C2CCCCC2)s1)NN=C1CCCCC1`, the GI50 was inactive: > 100 µM.

Turning to `O=C(O)c1cc2ccccc2c(/N=N/c2ccc(S(=O)(=O)Nc3ccccn3)cc2)c1O`, the GI50 is inactive: > 100 µM.

As to `COc1ccc(C=O)cc1OS(=O)(=O)C(F)(F)C(F)(F)C(F)(F)C(F)(F)F`, the GI50 was inactive: > 100 µM. Next, `C=C[Si](C)(C)COC(=O)/C(C#N)=C/C=C/c1ccccc1`: inactive: > 100 µM; `CCCCc1c2c([n+]([O-])c3c1CCCC3)CCCC2`: inactive: > 100 µM; `C[C@]12CCC(O)CC1=CC[C@@H]1[C@@H]2CC[C@]2(C)C(=O)[C@H](n3ccnc3)C[C@@H]12` (some centres undefined): inactive: > 100 µM. As for `CC1=NCCN=C(C)C1/N=N/c1ccc2[nH]c(C)nc2c1`, the GI50 is inactive: 14.8 µM. As for `Cc1cc(=O)oc2c1cc1ccc3cccc4ccc2c1c34`, the GI50 was inactive: > 100 µM. Take `CC(C)(O)/C=C\P(C)(=O)c1ccccc1` (centres undefined): the GI50 is inactive: > 100 µM. To `C[C@@H]1CC[C@@H]2[C@@H](C1)O[C@@H]([C@H](C)OCc1ccccc1)SC2(C)C` belongs inactive: 21.1 µM.

Take `COc1ccc2c(c1)-c1c(c3ccccc3n1CCN1CCOCC1)CC2`: the GI50 was inactive: 31.9 µM. Regarding `CCCCOC(=O)C(=O)C(CC(C(=O)Cc1ccccc1)c1ccccc1)C(=O)C=C(C)C` (centres undefined), the GI50 is inactive: > 100 µM. As for `COc1cccc(-c2nc(-c3cnccn3)n(C3OC(CO)C(O)C3O)n2)c1` (centres undefined), the GI50 is inactive: > 100 µM.

In the case of `CCCCCC1=C2C(c3ccc(OC)cc3)=C(N)C(c3ccc(OC)cc3)=C3NC(=O)C(C=C1)C32` (centres undefined), the GI50 is inactive: > 100 µM. Next, `Cc1cc(O)c(C(O)c2ccccn2)cc1O` (centres undefined): inactive: > 100 µM; `Nc1ccc(C(=O)N/C(=C\c2ccc3c(c2)OCO3)c2nc3ccccc3s2)cc1`: inactive: 16.3 µM; `Cn1c(=O)oc2cc(Br)ccc21`: inactive: > 100 µM. Take `Cc1ccc([N+](=O)[O-])cc1NC(=O)C(=O)C1CCC2=C(Sc3ccccc3N2)C1=O` (centres undefined): the GI50 was inactive: > 100 µM. Next, `CCOC(=O)Cn1nc2ccc(Nc3c(C)[n+]([O-])c4cc(F)c(OCC)cc4[n+]3[O-])cc2n1`: inactive: > 100 µM; `CCOC(=O)c1c(-c2ccc(OC)c(O)c2)c(C#N)c(=S)n(C2OC(CO)C(O)C(O)C2O)c1-c1ccccc1` (centres undefined): inactive: > 100 µM.

As for `COC(=O)c1c(C)nc(C)c(NO)c1-c1ccccc1C(F)(F)F`, the GI50 was inactive: > 100 µM. Regarding `COc1ccccc1/C=C1/Sc2scc(CC(=O)Nc3ccccc3)[n+]2C1=O`, the GI50 was inactive: 33.3 µM. As for `N#Cc1c2c(c(Nc3cccc(C(F)(F)F)c3)n3c1nc1ccccc13)CCC2`, the GI50 is inactive: > 100 µM. Turning to `CC(C)(CO)CNc1nc(N)nc(Cl)c1C=O`, the GI50 was inactive: 27 µM. On to `O=c1[nH]nc(Cc2ccccc2)n1C1CC1`, for which the GI50 is inactive: > 100 µM. To `Cc1cc(=O)oc2c1cc(OCC(=O)OCCN1CCCCC1)c1occ(C)c12` belongs inactive: > 100 µM. On to `O=C(NCCCCCCO)c1cccc2cc3ccccc3nc12`, for which the GI50 was inactive: 22.1 µM. Consider `Cc1c(/C=N\NC(=S)N2CCN(C(=S)N/N=C\c3c(C)n(C)n(-c4ccccc4)c3=O)CC2)c(=O)n(-c2ccccc2)n1C`, for which the GI50 is inactive: 54.7 µM. On to `Fc1cc(C2=Nn3c(COc4ccccc4Cl)nnc3S/C2=C\c2ccc(Cl)cc2)c(Cl)cc1Cl`, for which the GI50 was inactive: 3.42 µM. In the case of `NNC(=O)CNC(=O)CSc1nnc(COc2ccc(Cl)cc2)n1-c1ccccc1`, the GI50 was inactive: > 100 µM. `Cc1cnc2c(c1)C(=O)C1=C(C2=O)C2OC(=O)CC2OC1(C)C` (centres undefined): the GI50 was inactive: 2.2 µM.

Regarding `Cc1ccc(S(=O)(=O)OC2C3OC(C)(C)OC3OC2C(c2cc(O)c3c(c2O)C(=O)c2ccccc2C3=O)c2cc(O)c3c(c2O)C(=O)c2ccccc2C3=O)cc1` (centres undefined), the GI50 is inactive: > 10 µM. In the case of `O=C1N/C(=N/N=C\C(O)C(O)C(O)CO)N/C1=C/c1ccc(Cl)cc1` (centres undefined), the GI50 was inactive: 68.1 µM and inactive: 65 µM.

Take `COc1cccc(C2c3cc4c(cc3OC(Nc3ccccc3)C2C)OCO4)c1O` (centres undefined): the GI50 is inactive: 12.6 µM. With `COC(=O)C(Cc1cn(C(C)n2cc(CC(NC(C)=O)C(=O)OC)c3ccccc32)c2ccccc12)NC(C)=O` (centres undefined), the GI50 was inactive: > 100 µM. With `CN(C)c1ccc(/C=C(\NC(=O)c2ccccc2)C2NC(Cc3c[nH]c4ccccc34)C(=O)O2)cc1` (centres undefined), the GI50 was inactive: > 100 µM.

For the molecule `O=c1c(Cl)cc2nc3ccccc3sc-2c1Cl`, the GI50 was inactive: 16.2 µM.

On to `CN(C)c1ccc(Cc2cc(C(C)(C)C)cc(C(C)(C)C)c2O)cc1`, for which the GI50 is inactive: 19.5 µM. To `Clc1cc2nnn(C3CCCO3)c2cc1Cl` (centres undefined) belongs inactive: > 100 µM; to `Nc1cc(C(=O)NC2C3CC4CC(C3)CC2C4)nc(S)n1` (centres undefined), inactive: > 100 µM. Turning to `CC(C)CC(NC(=O)C(CSc1ccc([N+](=O)[O-])cc1)Cc1ccccc1)C(=O)Nc1ccccc1` (centres undefined), the GI50 is inactive: > 100 µM. Regarding `O[C@@]1(c2cccs2)c2cccc(Cl)c2[C@](O)(c2cccs2)c2cccc(Cl)c21`, the GI50 was inactive: 24.4 µM. `CCCCCCCCCCCCNC1(C)CNCCCNCCNCCCNC1`: the GI50 was inactive: 1.7 µM. To `CC(C)N(C(C)C)S(=O)(=O)C[C@]12CC[C@H](CC13OCC(CS(=O)(=O)c1ccccc1)O3)C2(C)C` (some centres undefined) belongs inactive: > 84.1 µM. As for `Cc1ccc2c(c1)CN(C(=O)CCC(=O)OCc1ccccc1)c1ccc(C)cc1CN2C(=O)CCC(=O)OCc1ccccc1`, the GI50 is inactive: > 34 µM. Consider `CCOC(=O)c1cc2c([nH]1)C(=O)CC1=C2CCN1Cc1ccccc1`, for which the GI50 was inactive: 14.6 µM. Turning to `Clc1ccccc1C1N2CCCCC2[C@@H]2c3[nH]c4ccccc4c3CCN12` (some centres undefined), the GI50 is inactive: 16.7 µM.

Take `Cc1ccc(S(=O)(=O)NNC(=O)Nc2cccc(C(F)(F)F)c2)cc1`: the GI50 is inactive: > 100 µM. Next, `CC1=C(C(=O)Nc2c(C)cccc2C)C(c2ccc3c(c2)OCO3)C(C(=O)Nc2c(C)cccc2C)=C(C)N1`: inactive: 13.8 µM; `CCOC(=O)c1cc(C2=CCNC2=O)c(-c2cc(C)no2)[nH]1`: inactive: 64.6 µM.

Regarding `N#C[C-](C#N)[n+]1ccc(Cl)cc1`, the GI50 is inactive: > 10 µM. Regarding `O=[N+]([O-])c1cccc(/N=N/c2c(O)ccc3ccccc23)c1`, the GI50 was inactive: > 100 µM.

As for `O=C(NCCO)Nc1c(C(F)(F)F)cc(-c2ccccc2)[nH]c1=O`, the GI50 was inactive: > 100 µM. Take `C[C@@H](NC(C#N)c1ccco1)c1ccccc1` (some centres undefined): the GI50 is inactive: > 100 µM. With `C[Si](C)(OCCS(=O)(=O)O)OC(=C1S(=O)(=O)OCCOS1(=O)=O)c1cccc2ccccc12`, the GI50 is inactive: > 100 µM.

As to `COc1ccc2nc3cc(Cl)ccc3c(NCCCNCCCNc3c4ccc(Cl)cc4nc4ccc(OC)cc34)c2c1`, the GI50 is active: 0.0285 µM. To `CCCC(=O)Nc1cc(/C=C/C(=O)N2CC(CCl)c3ccc(N)cc32)n(C)c1` (centres undefined) belongs active: 0.264 µM. On to `O=C(CC(=O)c1ccccc1)c1ccccc1.O=C(CC(=O)c1ccccc1)c1ccccc1.O=C(CC(=O)c1ccccc1)c1ccccc1.[SiH4]`, for which the GI50 was inactive: 2.66 µM.
